# Experimental data: the supplement of paper PMC10369915
# Some of the results follow. Cut-off read from the data, not from the text of the source: active = 3.2 or more and inactive = the rest. Most of these values are background signal.
# B1: MAML2_Y513 (peptide)
# chain: KVMANYMYKAG
# B2: MAP3K4_Y582 (peptide)
# chain: MWGSDYVQLSR
# B3: MAP1B_Y1921_S1917R_YF (peptide)
# chain: PRDSGYSFETI
# B4: MANEA_Y331_Y331C (peptide)
# chain: TNGFTCGSSHQ
# B5: MAGEC3_Y152 (peptide)
# chain: RRGTGYTLSLP
# B6: MAGED2_Y448_YF (peptide)
# chain: WGLRSYFETSK
# B7: LTK_Y677_R673Q_YF (peptide)
# chain: FQASFYRRGDR
# B8: MAP1A_Y2217 (peptide)
# chain: TRHDEYLEVTK
# B9: MAGED2_Y449_YF (peptide)
# chain: GLRSFYETSKM
# B10: MAPRE2_Y162 (peptide)
# chain: FYDANYDGKEY
# B11: MAK16_Y282_YF (peptide)
# chain: QRKRAYVEIEF
# B12: LYZL6_Y140 (peptide)
# chain: GRPLFYWLTGC
# B13: MAPK14_Y323 (peptide)
# chain: PVADPYDQSFE
# B14: MAML2_Y513_YF (peptide)
# chain: KVMANYMFKAG
# B15: MAP1A_Y1909 (peptide)
# chain: PLGKDYRKAEG
# B16: LTK_Y677_YF (peptide)
# chain: FRASFYRRGDR
# B17: MAP3K4_Y582_Q584H (peptide)
# chain: MWGSDYVHLSR
# B18: MAP2K3_Y214 (peptide)
# chain: FGISGYLVDSV
# B19: MAGED2_Y448_R446C_YF (peptide)
# chain: WGLCSYFETSK
# B20: MAP1A_Y1883 (peptide)
# chain: WGTAEYDSVVA
# B21: MAP1A_Y1909_A1912V (peptide)
# chain: PLGKDYRKVEG
# B22: MAOA_Y268_C266F (peptide)
# chain: HYEFKYVINAI
# B23: MAML2_Y515_M514V_YF (peptide)
# chain: MANFVYKAGPS
# B24: MAGED2_Y449_R446C_YF (peptide)
# chain: GLCSFYETSKM
# B25: MAGEC3_Y152_S155P (peptide)
# chain: RRGTGYTLPLP
# B26: MACC1_Y803_R804T (peptide)
# chain: HYGNNYTDVLQ
# B27: MAP3K7_Y405 (peptide)
# chain: AATTAYSKPKR
# B28: MAOA_Y268 (peptide)
# chain: HYECKYVINAI
# B29: LZTR1_Y141 (peptide)
# chain: YTGDIYSNSNL
# B30: MAP3K7_Y405_R410Q (peptide)
# chain: AATTAYSKPKQ
# B31: MACC1_Y803_R804T_YF (peptide)
# chain: HFGNNYTDVLQ
# B32: MAN2A1_Y442_K440R (peptide)
# chain: LQFRNYQQLFD
# B33: MAP1B_Y1921 (peptide)
# chain: PSDSGYSYETI
# B34: MAGED2_Y449 (peptide)
# chain: GLRSYYETSKM
# B35: MAML2_Y515 (peptide)
# chain: MANYMYKAGPS
# B36: MAP1A_Y1555_Q1553H (peptide)
# chain: ALEHKYWALGQ
# B37: MAGEA4_Y240_G241W (peptide)
# chain: REHTVYWEPRK
# Biological target: SHP2 C-SH2 domain E139D
# Assay: enrichment score (SH2-bound / input frequency) (ratio); bacterial display of known human phosphotyrosine sites (pTyr-Var adds point mutants) read by sequencing; higher = stronger binding; tyrosines were phosphorylated by kinases first
# Conditions: peptide library: pTyr-Var
# 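Note: displayed peptides selected on beads carrying the immobilized SH2 domain, with library peptides lacking any tyrosine serving as negative controls.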
row,Binder,enrichment score
1,B1,inactive: 1.02
2,B2,inactive: 0.946
3,B3,inactive: 0.826
4,B4,inactive: 0.664
5,B5,inactive: 0.319
6,B6,inactive: 2.89
7,B7,inactive: 0.213
8,B8,inactive: 0.757
9,B9,inactive: 0.78
10,B10,inactive: 0.802
11,B11,inactive: 0.46
12,B12,inactive: 1.23
13,B13,inactive: 0.435
14,B14,inactive: 1.23
15,B15,inactive: 0.517
16,B16,inactive: 0.148
17,B17,inactive: 0.966
18,B18,inactive: 1.64
19,B19,inactive: 1.17

row,Binder,enrichment score
1,B20,inactive: 0.869
2,B21,inactive: 0.499
3,B22,inactive: 1.41
4,B23,inactive: 1.26
5,B24,inactive: 1.17
6,B25,inactive: 0.235
7,B26,inactive: 0.93
8,B27,inactive: 0.477
9,B28,inactive: 0.653
10,B29,inactive: 0.688
11,B30,inactive: 1.23
12,B31,inactive: 0.844
13,B32,inactive: 0.891
14,B33,inactive: 0.409
15,B34,inactive: 1.21
16,B35,inactive: 0.692
17,B36,inactive: 0.967
18,B37,inactive: 1.2

# Biological target: SHP2 C-SH2 domain wild-type
# Assay: as above
# Conditions: peptide library: pTyr-Var
row,Binder,enrichment score
1,B1,inactive: 0.929
2,B2,inactive: 0.702
3,B3,inactive: 0.749
4,B4,inactive: 0.64
5,B5,inactive: 0.316
6,B6,inactive: 2.41
7,B7,inactive: 0.226
8,B8,inactive: 0.387
9,B9,inactive: 0.876
10,B10,inactive: 0.585
11,B11,inactive: 0.423
12,B12,inactive: 1.41
13,B13,inactive: 0.632
14,B14,inactive: 1.16
15,B15,inactive: 0.515
16,B16,inactive: 0.209
17,B17,inactive: 0.849
18,B18,inactive: 1.53
19,B19,inactive: 1.66

row,Binder,enrichment score
1,B20,inactive: 0.826
2,B21,inactive: 0.405
3,B22,inactive: 1.72
4,B23,inactive: 0.919
5,B24,inactive: 1.02
6,B25,inactive: 0.247
7,B26,inactive: 1.8
8,B27,inactive: 0.465
9,B28,inactive: 1.4
10,B29,inactive: 0.596
11,B30,inactive: 0.437
12,B31,inactive: 1.54
13,B32,inactive: 0.734
14,B33,inactive: 0.389
15,B34,inactive: 0.862
16,B35,inactive: 0.859
17,B36,inactive: 0.901
18,B37,inactive: 1.59

# Biological target: SHP2 N-SH2 domain L43F
# Assay: as above
# Conditions: peptide library: pTyr-Var
row,Binder,enrichment score
1,B1,inactive: 0.871
2,B2,inactive: 0.848
3,B3,inactive: 0.925
4,B4,inactive: 0.717
5,B5,inactive: 0.263
6,B6,inactive: 2.75
7,B7,inactive: 0.355
8,B8,inactive: 0.494
9,B9,inactive: 0.812
10,B10,inactive: 0.526
11,B11,inactive: 1.75
12,B12,inactive: 1.14
13,B13,inactive: 0.609
14,B14,inactive: 1.18
15,B15,inactive: 0.543
16,B16,inactive: 0.293
17,B17,inactive: 0.986
18,B18,inactive: 1.56
19,B19,inactive: 1.1

row,Binder,enrichment score
1,B20,inactive: 0.66
2,B21,inactive: 0.398
3,B22,inactive: 1.17
4,B23,inactive: 1.06
5,B24,inactive: 0.917
6,B25,inactive: 0.319
7,B26,inactive: 1.02
8,B27,inactive: 0.411
9,B28,inactive: 0.844
10,B29,inactive: 0.56
11,B30,inactive: 0.426
12,B31,inactive: 0.969
13,B32,inactive: 0.649
14,B33,inactive: 0.315
15,B34,inactive: 0.921
16,B35,inactive: 0.812
17,B36,inactive: 0.918
18,B37,inactive: 0.832

# Biological target: SHP2 N-SH2 domain T42A
# Assay: as above
# Conditions: peptide library: pTyr-Var
row,Binder,enrichment score
1,B1,inactive: 0.799
2,B2,inactive: 0.982
3,B3,inactive: 0.739
4,B4,inactive: 0.548
5,B5,inactive: 0.331
6,B6,inactive: 2.78
7,B7,inactive: 0.282
8,B8,inactive: 0.43
9,B9,inactive: 0.465
10,B10,inactive: 0.668
11,B11,active: 4.11
12,B12,inactive: 0.964
13,B13,inactive: 0.569
14,B14,inactive: 1.06
15,B15,inactive: 0.476
16,B16,inactive: 0.186
17,B17,inactive: 0.927
18,B18,inactive: 1.91
19,B19,inactive: 1.02

row,Binder,enrichment score
1,B20,inactive: 0.702
2,B21,inactive: 0.246
3,B22,inactive: 1.08
4,B23,inactive: 0.94
5,B24,inactive: 1.02
6,B25,inactive: 0.415
7,B26,inactive: 1.89
8,B27,inactive: 0.6
9,B28,inactive: 0.854
10,B29,inactive: 0.45
11,B30,inactive: 0.932
12,B31,inactive: 1.95
13,B32,inactive: 0.989
14,B33,inactive: 0.554
15,B34,inactive: 0.834
16,B35,inactive: 0.63
17,B36,inactive: 1.07
18,B37,inactive: 1.03

# Biological target: SHP2 N-SH2 domain T52S
# Assay: as above
# Conditions: peptide library: pTyr-Var
row,Binder,enrichment score
1,B1,inactive: 0.911
2,B2,inactive: 0.856
3,B3,inactive: 0.697
4,B4,inactive: 0.603
5,B5,inactive: 0.203
6,B6,inactive: 2.86
7,B7,inactive: 0.248
8,B8,inactive: 0.543
9,B9,inactive: 0.79
10,B10,inactive: 0.583
11,B11,inactive: 1.64
12,B12,inactive: 1.1
13,B13,inactive: 0.746
14,B14,inactive: 1.34
15,B15,inactive: 0.444
16,B16,inactive: 0.217
17,B17,inactive: 0.906
18,B18,inactive: 1.97
19,B19,inactive: 1.09

row,Binder,enrichment score
1,B20,inactive: 0.536
2,B21,inactive: 0.313
3,B22,inactive: 0.975
4,B23,inactive: 1.08
5,B24,inactive: 1.11
6,B25,inactive: 0.291
7,B26,inactive: 0.948
8,B27,inactive: 0.578
9,B28,inactive: 1.04
10,B29,inactive: 0.637
11,B30,inactive: 0.455
12,B31,inactive: 0.925
13,B32,inactive: 0.576
14,B33,inactive: 0.46
15,B34,inactive: 0.989
16,B35,inactive: 0.754
17,B36,inactive: 0.778
18,B37,inactive: 0.851

# Biological target: SHP2 N-SH2 domain wild-type
# Assay: as above
# Conditions: peptide library: pTyr-Var
row,Binder,enrichment score
1,B1,inactive: 1.05
2,B2,inactive: 0.78
3,B3,inactive: 0.674
4,B4,inactive: 0.842
5,B5,inactive: 0.359
6,B6,inactive: 2.17
7,B7,inactive: 0.285
8,B8,inactive: 0.645
9,B9,inactive: 0.702
10,B10,inactive: 0.585
11,B11,inactive: 0.604
12,B12,inactive: 1.4
13,B13,inactive: 0.719
14,B14,inactive: 1.26
15,B15,inactive: 0.707
16,B16,inactive: 0.265
17,B17,inactive: 1
18,B18,inactive: 1.23
19,B19,inactive: 1.09

row,Binder,enrichment score
1,B20,inactive: 0.783
2,B21,inactive: 0.532
3,B22,inactive: 2.09
4,B23,inactive: 0.985
5,B24,inactive: 1.37
6,B25,inactive: 0.373
7,B26,inactive: 1.13
8,B27,inactive: 0.562
9,B28,inactive: 1.27
10,B29,inactive: 0.762
11,B30,inactive: 0.866
12,B31,inactive: 0.947
13,B32,inactive: 0.735
14,B33,inactive: 0.378
15,B34,inactive: 0.826
16,B35,inactive: 0.684
17,B36,inactive: 1.01
18,B37,inactive: 1.41
